Among all 1,200 compounds or so, about 210 (18%) were called active. No stated cut-off is given here; in the data, active means inhibition above about 30%; inactive means the rest. The list shows a part of the results, in another mix than the full data.

This assay can be described thus: HTRF signal interference by compounds, confirmation, artefact control for SUMOylation inhibitor project, biochemical, uHTS (AID 2069). As to conditions: HTRF interference counterscreen, fluorescence, at 35 µM, stronger effect = higher value. (In general: In TR-FRET formats the signal depends on donor and acceptor labels being close together.)
For `C=CCN(CC=C)c1nc2ccccc2nc1C(C#N)C(=O)OC(C)C` (stereo unspecified), the inhibition is inactive: 8.7%. The result for `COc1ccc2c(c1)C(C)=CC(C)(C)N2C(=O)Nc1ccccc1` reads inactive: 11%. Next, `CN(C)c1cccc2c(C=C(C#N)C#N)ccc(N(C)C)c12`: inactive: -27.1%; `CCC(C(=O)O)n1nnc(-c2ccc(OCc3ccccc3)c(OC)c2)n1` (stereo unspecified): inactive: 16.9%; `COCCCn1c(C(=O)N2CC(C)OC(C)C2)cc2c(=O)n3ccccc3nc21` (stereo unspecified): active: 46.4%. Next, `Cc1cc(=O)[nH]c(SCC(=O)Nc2cccc(C(F)(F)F)c2)n1`: inactive: -3.4%; `Cc1ccc(S(=O)(=O)c2c(N)n(/N=C/c3ccco3)c3nc4ccccc4nc23)cc1C`: inactive: 8.45%. For `Cc1cc(NCCO)c2cc(O)ccc2n1`, the inhibition is active: 57.5%. The result for `Cc1ccc(C)c(S(=O)(=O)Nc2ccc(O)c3ccccc23)c1` reads inactive: -12.5%; that for `Cc1ccc(O)c(NC(=O)c2cc3nc4c(c(C(F)(F)F)n3n2)CCc2ccccc2-4)c1`, inactive: 9.8%. With `COc1ccc2c(c1)Cc1sc(NC(C)=O)nc1-2`, the inhibition is inactive: 5.1%. Take `C=CCn1c(N)c(C(=O)OC(C)(C)C)c2nc3ccccc3nc21`: the inhibition is active: 32.7%.

`COCCCNC(=O)c1c(N)n(-c2ccccc2)c2nc3ccccc3nc12`: the inhibition was active: 33.6%. As for `COc1ccc(-c2cc(C(F)(F)F)n3ncc(C(=O)NCc4ccco4)c3n2)cc1`, the inhibition was active: 44.1%. Next, `c1cc(Nc2ncnc3sc4c(c23)CCC4)ccn1`: active: 42.9%; `C=CCNC(=O)C(C#N)c1nc2ccccc2nc1N1CCCCCC1` (stereo unspecified): inactive: 7.7%; `FC(F)(F)c1ccccc1NC(=S)Nc1cccc2cnccc12`: inactive: 1.9%. Next, `CCN(CC)C(=O)COc1ccc2oc(-c3ccco3)cc(=O)c2c1`: active: 43.6%.

Take `O=C(O)CCC(=O)Nc1ccccc1C(=O)Nc1ccccc1`: the inhibition is inactive: 6.3%. The result for `O=C(NCc1ccccc1)Nc1cccn(Cc2ccc(Cl)cc2)c1=O` reads inactive: 24.9%; that for `Cc1ccc(C)c(S(=O)(=O)C(C#N)c2nc3ccccc3nc2N2CC(C)OC(C)C2)c1` (stereo unspecified), inactive: 5.5%; that for `O=C1N=c2ccccc2=C1c1c(O)n(-c2cccc(F)c2)[nH]c1=O`, inactive: -9.65%. Next, `Cc1ccc(-n2c(SCC(=O)Nc3ccc4c5c(cccc35)CC4)nc(O)cc2=O)cc1`: inactive: 2.9%; `O=C(c1ccc2c(c1)[nH]c(=S)n1c3ccccc3nc21)N1CCN(c2ncccn2)CC1`: inactive: 11.9%; `O=C1C(Cl)=C(N2CCN(c3ccccc3[N+](=O)[O-])CC2)C(=O)c2ccccc21`: inactive: -5.85%. The result for `O=C(Nc1ccccc1-c1nc2ccccc2s1)c1cccnc1Cl` reads active: 64%.

As usually defined, the inhibition is the drop in the measured response relative to a control, in per cent.
